The supplement of paper PMC12217912
The list shows a part of the results. Sequences were assembled here from the parent chain. Values near 0.05 are background.

B1: TEV protease; numbered along this chain (parent)
chain: MGESLFKGPRDYNPISSSICHLTNESDGHTTSLYGIGFGPFIITNKHLFRRNNGTLVVQSLHGVFKVKDTTTLQQHLVDGRDMIIIRMPKDFPPFPQKLKFREPQREERICLVTTNFQTKSMSSMVSDTSCTFPSGDGIFWKHWIQTKDGQCGSPLVSTRDGFIVGIHSASNFTNTNNYFTSVPKNFMELLTNQEAQQWVSGWRLNADSVLWGGHKVFMVKPEEPFQPVKEATQL

Variants of: B1
Assay: raw area under fraction-flipped curve 0-4 h after induction (AUC4h, not background-subtracted), DNA-recorder readout of cleavage of the substrate (dimensionless); higher = more cleavage of the substrate by the protease variant
Settings: temperature: 34 °C; time window: 0-4 h after rhamnose induction
Description: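 In vivo DNA recorder in E. coli TOP10(DE3) ΔrhaA at 34 °C. Each TEVp single-site mutant (parent TEVp 0) is paired with a single-site variant of the 7-mer TEVs (canonical ENLYFQ|S). The substrate sits between flexible linkers in a Bxb1-sfGFP-TEVs-SsrA fusion, so cleavage stabilises Bxb1 and speeds flipping of a recombination array, read by NGS. The value is the raw area under the fraction-flipped curve over 0-4 h after rhamnose induction (AUC4h), with ≥20 reads per time point. It is not background-subtracted; inactive controls average about 0.047.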
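Also: Bxb1 expression induced with 0.2% (w/v) L-rhamnose at OD600 near 0.5, cultures sampled hourly, flipped fraction per protease–substrate barcode pair counted by paired-end Illumina sequencing.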

Variant | area with substrate ENLAFQS | area with substrate ENLDFQS | area with substrate ENLEFQS | area with substrate ENLFFQS | area with substrate ENLHFQS | area with substrate ENLIFQS | area with substrate ENLKFQS | area with substrate ENLMFQS | area with substrate ENLNFQS | area with substrate ENLPFQS | area with substrate ENLQFQS | area with substrate ENLSFQS | area with substrate ENLWFQS | area with substrate ENLGFQS | area with substrate ENLRFQS | area with substrate ENLVFQS | area with substrate ENLCFQS | area with substrate ENLLFQS | area with substrate ENLTFQS
MGESLFKGPRDYNPICSSICHLTNESDGHTTSLYGIGFGPFIITNKHLFRRNNGTLVVQSLHGVFKVKDTTTLQQHLVDGRDMIIIRMPKDFPPFPQKLKFREPQREERICLVTTNFQTKSMSSMVSDTSCTFPSGDGIFWKHWIQTKDGQCGSPLVSTRDGFIVGIHSASNFTNTNNYFTSVPKNFMELLTNQEAQQWVSGWRLNADSVLWGGHKVFMVKPEEPFQPVKEATQL [S16C] | 0.0984 | 0.0624 | 0.047 | 0.0767 | 0.0792 | 0.0863 | 0.0723 | 0.0673 | 0.064 | 0.0392 | 0.0636 | 0.0466 | 0.084 |  |  |  |  |  | 
MGESLFKPPRDYNPISSSICHLTNESDGHTTSLYGIGFGPFIITNKHLFRRNNGTLVVQSLHGVFKVKDTTTLQQHLVDGRDMIIIRMPKDFPPFPQKLKFREPQREERICLVTTNFQTKSMSSMVSDTSCTFPSGDGIFWKHWIQTKDGQCGSPLVSTRDGFIVGIHSASNFTNTNNYFTSVPKNFMELLTNQEAQQWVSGWRLNADSVLWGGHKVFMVKPEEPFQPVKEATQL [G8P] | 0.0668 | 0.0649 | 0.0558 | 0.103 | 0.0765 | 0.126 |  | 0.0658 |  |  |  | 0.0629 | 0.0547 | 0.117 |  |  |  |  | 
MGESLFKDPRDYNPISSSICHLTNESDGHTTSLYGIGFGPFIITNKHLFRRNNGTLVVQSLHGVFKVKDTTTLQQHLVDGRDMIIIRMPKDFPPFPQKLKFREPQREERICLVTTNFQTKSMSSMVSDTSCTFPSGDGIFWKHWIQTKDGQCGSPLVSTRDGFIVGIHSASNFTNTNNYFTSVPKNFMELLTNQEAQQWVSGWRLNADSVLWGGHKVFMVKPEEPFQPVKEATQL [G8D] | 0.0719 |  |  |  | 0.0648 |  | 0.0771 |  | 0.0373 | 0.055 |  |  |  |  | 0.0678 | 0.0777 |  |  | 
MGESLFKGPSDYNPISSSICHLTNESDGHTTSLYGIGFGPFIITNKHLFRRNNGTLVVQSLHGVFKVKDTTTLQQHLVDGRDMIIIRMPKDFPPFPQKLKFREPQREERICLVTTNFQTKSMSSMVSDTSCTFPSGDGIFWKHWIQTKDGQCGSPLVSTRDGFIVGIHSASNFTNTNNYFTSVPKNFMELLTNQEAQQWVSGWRLNADSVLWGGHKVFMVKPEEPFQPVKEATQL [R10S] | 0.0755 | 0.063 | 0.0468 | 0.0772 | 0.0595 | 0.0709 | 0.0803 | 0.0765 | 0.0624 | 0.0552 |  | 0.0671 |  |  | 0.0663 | 0.0718 | 0.0648 | 0.0693 | 
MGESLFKGPKDYNPISSSICHLTNESDGHTTSLYGIGFGPFIITNKHLFRRNNGTLVVQSLHGVFKVKDTTTLQQHLVDGRDMIIIRMPKDFPPFPQKLKFREPQREERICLVTTNFQTKSMSSMVSDTSCTFPSGDGIFWKHWIQTKDGQCGSPLVSTRDGFIVGIHSASNFTNTNNYFTSVPKNFMELLTNQEAQQWVSGWRLNADSVLWGGHKVFMVKPEEPFQPVKEATQL [R10K] | 0.0613 | 0.0643 | 0.0722 | 0.099 | 0.0702 | 0.0726 | 0.0699 | 0.0609 | 0.0644 | 0.0625 |  | 0.0644 | 0.0589 | 0.0732 | 0.105 | 0.0758 | 0.0687 | 0.0716 | 
MGEDLFKGPRDYNPISSSICHLTNESDGHTTSLYGIGFGPFIITNKHLFRRNNGTLVVQSLHGVFKVKDTTTLQQHLVDGRDMIIIRMPKDFPPFPQKLKFREPQREERICLVTTNFQTKSMSSMVSDTSCTFPSGDGIFWKHWIQTKDGQCGSPLVSTRDGFIVGIHSASNFTNTNNYFTSVPKNFMELLTNQEAQQWVSGWRLNADSVLWGGHKVFMVKPEEPFQPVKEATQL [S4D] | 0.0648 | 0.058 | 0.0616 | 0.117 | 0.073 |  | 0.0875 | 0.0637 | 0.073 | 0.0468 |  | 0.0611 | 0.0868 |  | 0.0777 |  | 0.0598 | 0.0753 | 
MGESLFKGPRWYNPISSSICHLTNESDGHTTSLYGIGFGPFIITNKHLFRRNNGTLVVQSLHGVFKVKDTTTLQQHLVDGRDMIIIRMPKDFPPFPQKLKFREPQREERICLVTTNFQTKSMSSMVSDTSCTFPSGDGIFWKHWIQTKDGQCGSPLVSTRDGFIVGIHSASNFTNTNNYFTSVPKNFMELLTNQEAQQWVSGWRLNADSVLWGGHKVFMVKPEEPFQPVKEATQL [D11W] | 0.0642 | 0.0622 | 0.0648 | 0.0636 | 0.0724 | 0.0848 | 0.0794 |  | 0.0639 | 0.0518 |  | 0.0512 | 0.0605 | 0.077 | 0.0694 |  | 0.0841 | 0.0665 | 0.0791
MGESLFKGPRDYNIISSSICHLTNESDGHTTSLYGIGFGPFIITNKHLFRRNNGTLVVQSLHGVFKVKDTTTLQQHLVDGRDMIIIRMPKDFPPFPQKLKFREPQREERICLVTTNFQTKSMSSMVSDTSCTFPSGDGIFWKHWIQTKDGQCGSPLVSTRDGFIVGIHSASNFTNTNNYFTSVPKNFMELLTNQEAQQWVSGWRLNADSVLWGGHKVFMVKPEEPFQPVKEATQL [P14I] | 0.0613 | 0.0625 | 0.0748 | 0.0831 |  | 0.0557 | 0.076 | 0.063 | 0.0669 | 0.0528 | 0.066 | 0.0619 |  | 0.0633 | 0.0741 | 0.077 | 0.0853 | 0.0675 | 0.0614
MGESEFKGPRDYNPISSSICHLTNESDGHTTSLYGIGFGPFIITNKHLFRRNNGTLVVQSLHGVFKVKDTTTLQQHLVDGRDMIIIRMPKDFPPFPQKLKFREPQREERICLVTTNFQTKSMSSMVSDTSCTFPSGDGIFWKHWIQTKDGQCGSPLVSTRDGFIVGIHSASNFTNTNNYFTSVPKNFMELLTNQEAQQWVSGWRLNADSVLWGGHKVFMVKPEEPFQPVKEATQL [L5E] | 0.0516 | 0.0675 | 0.0769 | 0.0848 | 0.0472 |  | 0.0796 | 0.0766 | 0.0561 | 0.0388 |  | 0.0488 | 0.0731 | 0.0562 | 0.08 | 0.102 |  | 0.0749 | 0.0242
